This note sets out measurements from publication PMC5945890.

Results are given in words; binding and its absence hold for the method and conditions named. In cells and extracts the contact can be indirect. Some binding calls cover weakened binding; strength is not graded here. Where a sequence is shown, tags or fusion partners need not be part of it.

Test [1] has as its target T1, mCPSF30-L-YFP^N (Arabidopsis thaliana) (UniProt A9LNK9).
T1 sequence: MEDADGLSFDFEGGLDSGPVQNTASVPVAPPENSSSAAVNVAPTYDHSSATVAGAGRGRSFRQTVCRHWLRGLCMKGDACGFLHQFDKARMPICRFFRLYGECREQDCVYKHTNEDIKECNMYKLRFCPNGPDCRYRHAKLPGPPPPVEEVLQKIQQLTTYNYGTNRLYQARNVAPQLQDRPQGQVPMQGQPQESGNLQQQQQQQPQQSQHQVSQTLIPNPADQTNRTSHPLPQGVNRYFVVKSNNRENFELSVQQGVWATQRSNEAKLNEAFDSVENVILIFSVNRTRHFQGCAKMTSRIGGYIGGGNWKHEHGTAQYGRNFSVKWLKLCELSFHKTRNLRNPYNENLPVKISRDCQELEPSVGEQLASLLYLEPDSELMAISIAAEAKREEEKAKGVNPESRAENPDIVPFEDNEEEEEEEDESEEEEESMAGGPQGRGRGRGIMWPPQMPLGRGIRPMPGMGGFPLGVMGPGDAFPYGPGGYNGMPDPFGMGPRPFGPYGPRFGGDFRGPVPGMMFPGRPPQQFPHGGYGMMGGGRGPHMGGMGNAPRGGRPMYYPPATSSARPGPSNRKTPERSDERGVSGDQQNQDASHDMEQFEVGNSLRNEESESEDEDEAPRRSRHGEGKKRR
In words: split reporter; BiFC; YFP^N and YFP^C fusions cotransfected into Arabidopsis mesophyll protoplasts, confocal microscopy; signal in the nucleus.

For test [2], the target named is T2, CPSF30-L-YFP^N (Arabidopsis thaliana) (UniProt A9LNK9).
T2 sequence: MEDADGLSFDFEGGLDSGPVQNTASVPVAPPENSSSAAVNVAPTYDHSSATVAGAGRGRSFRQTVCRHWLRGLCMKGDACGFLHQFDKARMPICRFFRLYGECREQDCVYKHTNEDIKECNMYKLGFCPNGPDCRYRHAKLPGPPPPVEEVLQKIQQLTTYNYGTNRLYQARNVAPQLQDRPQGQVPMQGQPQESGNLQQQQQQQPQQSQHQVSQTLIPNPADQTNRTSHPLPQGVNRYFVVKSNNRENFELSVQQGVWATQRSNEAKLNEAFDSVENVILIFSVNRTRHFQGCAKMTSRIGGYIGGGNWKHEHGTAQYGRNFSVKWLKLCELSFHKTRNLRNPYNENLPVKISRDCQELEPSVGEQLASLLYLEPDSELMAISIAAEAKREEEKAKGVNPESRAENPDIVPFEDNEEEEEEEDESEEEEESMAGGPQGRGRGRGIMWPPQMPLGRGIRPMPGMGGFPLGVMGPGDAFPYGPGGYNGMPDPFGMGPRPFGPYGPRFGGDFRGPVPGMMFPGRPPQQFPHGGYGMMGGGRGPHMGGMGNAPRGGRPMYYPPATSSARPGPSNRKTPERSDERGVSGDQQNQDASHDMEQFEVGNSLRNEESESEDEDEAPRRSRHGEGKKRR
The test is described as above.

B1: FIP1-YFP^C (protein, UniProt F4KDH9 1-1196)
chain: MEEDDEFGDLYSDVLQPFQPPVVLPPPPPLPHRSIDLNLRSQDQDVSEPNSAPISRVSDNDAVKLSTQDATRQAIVDGGGDDKDMSFDIEEPDADSTPTIPGLFVTGALPGLATDRGVSQVTTRIEQQVGGGGDGGYGGQGEGDDWDSDSEDDLQIVLNDSSRNVMIGGADRRSRMGDNEDDDDEDDEDPLVIVADTDPNQPMEEQMWGEDGLQGIEGDGKDGGEAGKGSGPGGATGPPKAGYSSHGYHPFHSQFKYVRPGAAPIPGGAASVGGPSSGQVRPPANLGPMAGRGRGDWRPLGMRNASAAQKGFHQPWGSNTAGRGLDFTLPSHKTIFEVDIDSFEEKPWRYPGVEMTDYFNFGLNEESWKDYCKQLDQHRIQTTMQSRIRVYESGRTDQGYDPDLPPELAAATGAQGVPVDSSNLVKPDSVQGDSAKVPANVRPTLPPGRPIPVETGSGERLPSIDTRAPRMRDLDAIIEIVCQDSHEDEPSGENGTDQADSSLPGENVPVETSYVNNKRPDTESAEHSPAQDEPHKNLLKKQDDEISRSTDSGQSFRSSSPVGDRGTRSSSVDREDVGGEAGKDAEMGEELKMSFTSPQSAVQEDDGGESKTERSSESSKARSGSHRDFQQEEDVIQDKHSSRPANNRKQYDNNAPHQSRKNQDRGKEMERTRAASKGGRENSNPHMELDSTYIYSIASREDFDKRKERDVDGAVWRRKEDDPYSRRGGDEGSRKRDREDDPGFRQRGKMRENEIRSKDDQVPSRKHMDDAGMRNIYEPDDHINKRRKDEEYLRRSRPEKNEISYGQRESMSRVKRERDDRLEHQKRDVQHKIRDDFDDHGSLRQRDDIYMQRDGNERLRERDVLDKLKLPHEDGISARGRERQVAVRGHRGSEDRSSRMKDEYKASDKEHVTKDTLRHAKQTKRRDYPGEESSSHHRGHEDFSARTDNIVNNEKKPRQERTGAKIDKFIDTLDGQRLQDRKHKDSRRKIKEQREGTESLSKQGEQNGSSVVTGSKGTNDARNCRSEIPHQPNTAKRHKENASSGDEIHDSKRGRTKLERWASHKEREDAVSAKSSSISSKLEEKENNTNGRLSEPVHGSIGKSRDVTEEKIGHDLADTKDGSEKGPGDRHLDTVEKLKKRSERFKLPMPTEKDTTGVKKMESETLPSAKIEGPVDSEGEYVWDERSCVRIGREYA
Consider B1, for which the binding entry in test [1] is “no binding”; in test [2], “binds”.
